# Measured values as given in the supplement of paper PMC10338343.
# ± gives the standard deviation. This is a selection; strong and weak results do not stand in their true shares.
# Test system: MIWI (PIWIL1) piRISC loaded with L1MC piRNA (30 nt)
# Experiment: pre-steady-state target cleavage rate (min^-1); MIWI and MILI are mouse PIWI proteins and EfPiwi is from a freshwater sponge; tags in brackets are library labels; higher = faster piRNA-guided slicing of the target
# Settings: guide: L1MC piRNA 5'p-UAACUAAAUACUAUGCAAGCUGUAGGUCCU; auxiliary factor: 500 nM mouse GTSF1
# How it was run: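 A transcribed, DNA-blocked target RNA library […] was incubated at 33 °C for 0–8 or 0–960 min with 1 nM active affinity-purified piRISC carrying one synthetic guide, in HEPES–potassium acetate buffer with or without 500 nM GTSF1 partner protein. Uncleaved targets were then sequenced and normalised to depth and to weakly complementary targets. Data from three trials were pooled, with k3 capped at 0.0001 min^-1, and a burst-and-steady-state fit yielded the pre-steady-state cleavage rate.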
# 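Note: 1 nM active piRISC with 0.1 nM target library at 33 °C single turnover.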
row,Sequence,pre-steady-state target cleavage rate
1,UCCUCCUACAGCUUGCAUAGAUUUUAGUAA,0.117 ± 0.028
2,UCCUGGUACAGCUUGCAUAGUAAUAAGUUA,0.197 ± 0.031
3,UCCUGGAUGUCCAUGCAUAGUAUUUAGUUA,0.0122 ± 0.0055
4,AGGACCUACAGCUUGCAUAGUAAAAUCAAA,0.312 ± 0.075
5,UCCUGGAUGUCGAAGCAUAGUAUUUAAGUUA,0.0123 ± 0.0033
6,UCCUCCUACAGCUUGCAUAGUAUUUAUUA,0.208 ± 0.028
7,UCCUGGAUCACCUUCCAUAGUAUUUAGUUA,0.00835 ± 0.0045
8,AGGACCUACAGCUUGCUAUGUAUUUAGAAA,0.147 ± 0.047
9,UCCUGGAACAGCUUGCAUAGUAAUUUCAAA,0.029 ± 0.012
10,UCCUGCUACAGCUUGCAUAGAUUUUAGAAA,0.00439 ± 0.0033
11,UCCUGGAUGAGCUUCCAUAGUAUUUACUUA,0.0116 ± 0.0069
12,UCGACCUACAGCUUGCAUAGUAAAAAGUAA,0.197 ± 0.026
13,UCCUGCUACAGGAUGCAUAGUAUUUUCAAA,0.0394 ± 0.011
14,UCCUGGAACAGCUUGCAUAGAAUUUUCAAA,0.0617 ± 0.021
15,UCCUCCUACAGCUUGCAUAGUAAAUUCAAA,0.142 ± 0.041
16,UCGACCUACAGCUUGCAUAGUAUAAAGUAA,0.318 ± 0.036
17,UCGACCUACAGGAAGCAUAGUAUUUACAAA,0.17 ± 0.034
18,AGCUGCUACAGCUUGCAUAGUAUUUACAAA,0.268 ± 0.048
19,UCCUGGUACAGCUUGCAUCAGUAUUUAGUUA,0.0104 ± 0.0051

row,Sequence,pre-steady-state target cleavage rate
1,UCCACCUACAGCUUCCAUAGUAUUUAGUAA,0.151 ± 0.048
2,UCCUGGAUCAGCAUCCAUAGUAUUUAGUUA,0.051 ± 0.017
3,UCCUGGAUCAGCUUGCAUAGUAUAAUCAAA [g8:g22:cont:t1A],0.0365 ± 0.013
4,UCCUGGAACAGCUAGCAUAGUAUUUUCAAA,0.102 ± 0.026
5,UCCACCUACAGCUUGCAUAGUUAUUAGAAA,0.0769 ± 0.022
6,UCCUCCUACAGCUUGCAUAGUAUAAUCAAA,0.329 ± 0.048
7,UCCUGGAUCAGCUUGCAUAGAAUUUACAAA,0.0559 ± 0.014
8,UCCACCUACAGCUUGGUUAGUAUUUACAAA,0.0513 ± 0.013
9,UCCUGGAUGAGGUUGCAUACUAUUUAGUUA,0.0173 ± 0.0077
10,UCCUGGUACAGCUUGCUAUGUAUUUAGUAA,0.0244 ± 0.0086
11,AGGACCUACAGCUACGAUAGUAUUUAGUAA,0.153 ± 0.045
12,UCCUGGAUCAGCUUGCAUAGUAUAUACAAA,0.0666 ± 0.022
13,UCCUGGAUGUCCAUGCUUAGUAUUUAGUUA,0.00676 ± 0.0046
14,UCCUCCUAGAGCUUCCAUAGUAUUUAGUUA,0.139 ± 0.04
15,AGGACCUACAGCAUCCAUAGUAUUUAGUUA,0.319 ± 0.053
16,UCCUGGAACAGCUUGCAUAGUAUAUUCAAA,0.166 ± 0.041
17,UCCUGGAUGUGCAACCAUAGUAUUUAGUUA,0.00823 ± 0.0027
18,UGGACCUACAGCUUCCAUAGUAUAUAGUUA,0.00443 ± 0.0027
19,UCCUGGAACAGCUUCCAUAGUAAUUAGUUA,0.0147 ± 0.0069
